Molecular target: the molecule itself
Assay: SEC; 20 µM HSPB1 or mutant alone, native; Superose 12 10/300 GL, reaction buffer (100 mM KOAc, 20 mM HEPES-KOH pH 7.5, 5 mM MgOAc2), 4 °C, absorbance at 280 nm

B1: HSPB1-3D-GxG (natural protein)
chain: not shown
notes: human HSPB1 with S15D, S78D, S82D and the IXI/V motif 181-IPV-183 mutated to GxG (I181G, V183G); in pPROEX HTa; Dimer by SEC; His tag removed with TEV protease; also called HSPB1-3D-GxG (I181G/V183G)
stoichiometry N: 2
